Measurements as given in paper PMC4583372.
Substitutions are numbered along the chain they refer to. No constants are given. Whether binding was seen depends on the method and setting. In cells and extracts the contact can be indirect. Some entries that bind do so weakly or less than the wild type.

Protein sequences, listed by entry. Tags and fused reporters are not part of them.
UniProt P32958: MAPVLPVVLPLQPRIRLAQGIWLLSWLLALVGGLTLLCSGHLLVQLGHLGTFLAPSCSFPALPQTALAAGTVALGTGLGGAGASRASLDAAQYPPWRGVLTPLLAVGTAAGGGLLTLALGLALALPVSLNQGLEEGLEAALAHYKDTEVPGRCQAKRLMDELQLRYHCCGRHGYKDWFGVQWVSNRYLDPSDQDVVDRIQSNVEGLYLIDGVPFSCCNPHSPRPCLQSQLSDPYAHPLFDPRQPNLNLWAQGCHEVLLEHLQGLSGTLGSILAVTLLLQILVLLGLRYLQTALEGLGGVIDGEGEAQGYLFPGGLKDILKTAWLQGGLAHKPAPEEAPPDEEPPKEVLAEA

How the values were obtained:
[1] = molecular target: T1, Peripherin-2 also known as RDS (retinal degeneration slow) (mouse (endogenous in retina)) (UniProt P15499); test: proximity ligation; Duolink In Situ kit on WT mouse retinal cryosections; paired sections with regular immunofluorescence
T1 sequence: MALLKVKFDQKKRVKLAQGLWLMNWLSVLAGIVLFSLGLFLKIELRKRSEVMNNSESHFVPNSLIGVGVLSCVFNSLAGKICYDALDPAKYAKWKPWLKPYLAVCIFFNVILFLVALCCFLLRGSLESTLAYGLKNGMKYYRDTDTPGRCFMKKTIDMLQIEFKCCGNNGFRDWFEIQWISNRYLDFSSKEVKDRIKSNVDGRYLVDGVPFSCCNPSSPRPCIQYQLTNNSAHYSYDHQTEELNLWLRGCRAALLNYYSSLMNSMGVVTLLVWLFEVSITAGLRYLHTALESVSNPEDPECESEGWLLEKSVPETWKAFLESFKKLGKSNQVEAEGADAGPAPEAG

[2] = molecular target: ROM-1 (rod outer segment protein 1) (mouse (endogenous in retina)) (UniProt P32958); test: as above
[3] = molecular target: T1, Peripherin-2 also known as RDS (retinal degeneration slow) (mouse (endogenous in retina)); test: co-IP; retinal extracts from rds-/- mice (IP with ROM-1 mAB 2H5) and rom1-/- mice (IP with RDS-CT); western blot for Syn3B
[4] = molecular target: ROM-1 (rod outer segment protein 1) (mouse (endogenous in retina)) (UniProt P32958); test: as above
[5] = molecular target: T1, Peripherin-2 also known as RDS (retinal degeneration slow) (mouse (endogenous in retina)); test: co-IP; Triton X-100 extracted WT mouse retinas; IP with RDS, ROM-1 or Syn3B antibodies and protein A sepharose; western blot
[6] = molecular target: ROM-1 (rod outer segment protein 1) (mouse (endogenous in retina)) (UniProt P32958); test: as above
[7] = molecular target: T2, C150S-RDS of knockin mice (rds ^C150S/C150S) (mouse (knock-in, in retina)) (UniProt P15499); test: co-IP; retinal extracts of WT, nrl-/-, rds C150S/C150S, rds Y141C/Y141C, R172W/rds-/- and R172W/rds-/-/nrl-/- mice; detergent not indicated; IP with anti-Syn3B-478 (elution non-reducing, or eluents treated with EndoH) or with RDS antibodies (mAB 2E7 or RDS-CT); western blot
T2 sequence: T1 sequence with C150S

[8] = molecular target: T1, Peripherin-2 also known as RDS (retinal degeneration slow) (mouse (endogenous in retina)); test: as above
[9] = molecular target: T3, R172W-RDS of transgenic mice (R172W/rds ^-/- and R172W/rds ^-/- /nrl ^-/-) (UniProt P15499); test: as above
T3 sequence: T1 sequence with R172W

[10] = molecular target: T4, Y141C-RDS of knockin mice (rds ^Y141C/Y141C) (mouse (knock-in, in retina)) (UniProt P15499); test: as above
T4 sequence: T1 sequence with Y141C

Measured: binding

B1: Syntaxin-3 isoform B (Stx3) (protein, UniProt Q64704-2 1-287)
chain: MKDRLEQLKAKQLTQDDDTDEVEIAIDNTAFMDEFFSEIEETRLNIDKISEHVEEAKKLYSIILSAPIPEPKTKDDLEQLTTEIKKRANNVRNKLKSMEKHIEEDEVRSSADLRIRKSQHSVLSRKFVEVMTKYNEAQVDFRERSKGRIQRQLEITGKKTTDEELEEMLESGNPAIFTSGIIDSQISKQALSEIEGRHKDIVRLESSIKELHDMFMDIAMLVENQGAMIDRIENNMDQSVGFVERAVADTKKAVKYQSEARRKKIMIMICCIILAIILASTIGGIFA
binds: all assays above
